Laboratory results: the supplement of paper PMC7826260
This is one part of the list. Viral Rep nickase domains cut single-stranded DNA in vitro (3 µM enzyme, 1 h, 37 °C); shown is the middle of each 90-letter strand. Values are log2 of uncut reads against the no-enzyme pool; the lower, the more was cut; hits are not called. Shares of all reads are compared; values above 0 arise when much of the pool is cut.

Tests used:
Experiment in all cases: uncleaved DNA left, log2 of reads against the no-enzyme library (log2 ratio); higher = less cleavage (more negative = more Rep cleavage of the k-mer); sequences stand for … in CTCGTCCG…ACCGGAGA
[1] = test system: T1, Rep nickase domain of Muscovy duck circovirus
T1 sequence (protein, residues 1-111, tag omitted): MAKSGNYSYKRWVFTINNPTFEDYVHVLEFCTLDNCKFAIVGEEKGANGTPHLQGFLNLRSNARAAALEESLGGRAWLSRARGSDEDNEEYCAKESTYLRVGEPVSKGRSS
Description: (§1)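 A pool of 90-nt single-stranded DNAs with seven random bases just before the constant AC of the nick site (name = the seven bases) was cut by 3 µM recombinant His6-SUMO-tagged Rep nickase domain (300 nM DNA, 50 mM HEPES pH 8.0, 50 mM NaCl, 1 mM MnCl2, 1 h, 37 °C, three replicates). Uncut DNA was amplified and sequenced.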

[2] = test system: T2, Rep nickase domain of banana bunchy top virus
T2 sequence (protein, residues 1-94, tag omitted): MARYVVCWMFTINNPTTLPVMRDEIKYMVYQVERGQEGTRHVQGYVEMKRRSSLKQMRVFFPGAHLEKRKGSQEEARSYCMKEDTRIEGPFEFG
Description: as §1

[3] = test system: T3, Rep nickase domain of cabbage leaf curl virus
T3 sequence (protein, residues 1-116, tag omitted): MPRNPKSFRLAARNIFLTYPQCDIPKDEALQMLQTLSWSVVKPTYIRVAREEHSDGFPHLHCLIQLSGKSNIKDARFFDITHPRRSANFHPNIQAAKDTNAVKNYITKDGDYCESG
Description: as §1

[4] = test system: T4, Rep nickase domain of chickpea chlorotic dwarf virus
T4 sequence (protein, residues 1-124, tag omitted): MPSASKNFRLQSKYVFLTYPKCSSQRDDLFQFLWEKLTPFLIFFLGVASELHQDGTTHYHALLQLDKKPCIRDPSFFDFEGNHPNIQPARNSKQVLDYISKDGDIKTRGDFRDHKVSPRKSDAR
Description: as §1

[5] = test system: T5, Rep nickase domain of faba bean necrotic yellows virus
T5 sequence (protein, residues 1-98, tag omitted): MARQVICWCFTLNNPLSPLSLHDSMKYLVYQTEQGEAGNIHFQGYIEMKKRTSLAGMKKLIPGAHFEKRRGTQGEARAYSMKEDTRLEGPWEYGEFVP
Description: as §1

[6] = test system: T6, Rep nickase domain of maize striate mosaic virus
T6 sequence (protein, residues 1-117, tag omitted): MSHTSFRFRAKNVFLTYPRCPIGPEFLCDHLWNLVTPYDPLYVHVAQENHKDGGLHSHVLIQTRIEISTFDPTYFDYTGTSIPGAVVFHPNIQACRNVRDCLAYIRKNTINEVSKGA
Description: as §1

[7] = test system: T7, Rep nickase domain of porcine circovirus 2
T7 sequence (protein, residues 2-116, tag omitted): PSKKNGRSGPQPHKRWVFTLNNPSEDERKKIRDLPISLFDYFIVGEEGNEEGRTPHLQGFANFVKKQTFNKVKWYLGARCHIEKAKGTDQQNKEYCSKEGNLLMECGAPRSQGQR
Description: as §1

[8] = test system: T8, Rep nickase domain of tomato golden mosaic virus
T8 sequence (protein, residues 1-124, tag omitted): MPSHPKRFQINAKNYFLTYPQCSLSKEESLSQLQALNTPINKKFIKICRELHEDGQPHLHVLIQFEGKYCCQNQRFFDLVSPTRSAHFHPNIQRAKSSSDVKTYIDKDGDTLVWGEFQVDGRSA
Description: as §1

[9] = test system: T9, Rep nickase domain of tomato yellow leaf curl virus
T9 sequence (protein, residues 1-136, tag omitted): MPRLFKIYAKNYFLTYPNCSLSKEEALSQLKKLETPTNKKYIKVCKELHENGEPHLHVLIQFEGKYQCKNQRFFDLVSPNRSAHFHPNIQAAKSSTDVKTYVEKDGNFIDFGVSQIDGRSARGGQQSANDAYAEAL
Description: as §1

[10] = test system: T10, Rep nickase domain of wheat dwarf virus
T10 sequence (protein, residues 1-137, tag omitted): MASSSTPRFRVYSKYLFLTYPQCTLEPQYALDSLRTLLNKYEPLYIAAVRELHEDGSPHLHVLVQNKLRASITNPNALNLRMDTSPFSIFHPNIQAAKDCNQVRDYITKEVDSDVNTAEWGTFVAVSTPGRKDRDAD
Description: as §1

| Sequence | uncleaved DNA left (log2) [1] | uncleaved DNA left (log2) [2] | uncleaved DNA left (log2) [3] | uncleaved DNA left (log2) [4] | uncleaved DNA left (log2) [5] | uncleaved DNA left (log2) [6] | uncleaved DNA left (log2) [7] | uncleaved DNA left (log2) [8] | uncleaved DNA left (log2) [9] | uncleaved DNA left (log2) [10] |
| --- | --- | --- | --- | --- | --- | --- | --- | --- | --- | --- |
| ACTAGGA | -0.0355 | -0.0623 | 0.0827 | 0.454 | 0.0285 | -0.596 | 0.0739 | -0.0354 | -0.0534 | -0.00399 |
| TCGCCAA | 0.156 | 0.173 | -0.121 | -0.0918 | -0.0576 | -0.4 | 0.118 | -0.0133 | 0.15 | 0.0456 |
| TGCACTT | -0.00442 | -0.0204 | 0.0437 | -0.351 | -0.11 | 0.769 | -0.0405 | -0.00628 | -0.0179 | 0.0992 |
| ACAGTCG | 0.0205 | -0.0651 | -0.474 | 0.954 | 0.00702 | 0.181 | 0.22 | -0.0535 | 0.00229 | -0.0399 |
| CGCGACG | 0.169 | 0.091 | 0.0115 | 0.674 | 0.0478 | 1.3 | 0.183 | 0.107 | -0.0223 | 0.0623 |
| TAGTGCA | -0.344 | -0.531 | -0.519 | -1.75 | -0.281 | -1.16 | -2.91 | -0.0929 | -0.0608 | -0.215 |
| GCGATTG | -0.052 | 0.124 | 0.092 | 0.646 | 0.0179 | 1.62 | 0.111 | 0.116 | -0.023 | -0.000428 |
| TGAAGCC | 0.000109 | -0.0479 | -0.037 | -0.403 | -0.0351 | -0.514 | 0.0904 | -0.0691 | -0.0113 | -0.0743 |
| CCAACCC | -0.344 | -0.0119 | -0.135 | -1.67 | -0.0683 | -0.513 | -0.969 | -0.0866 | -0.0861 | -0.0521 |
| AGAGCAT | -0.00943 | 0.0735 | 0.258 | 0.727 | -0.00187 | 0.77 | -0.0392 | -0.0282 | -0.0292 | 0.0905 |
| ATAGCAT | 0.0175 | 0.0333 | 0.0228 | 0.153 | 0.0306 | -0.171 | 0.0787 | 0.059 | 0.0145 | 0.0083 |
| GATTGAC | -0.0318 | -0.0749 | 0.197 | 0.682 | -0.0621 | 0.336 | 0.132 | -0.073 | -0.0402 | 0.0442 |
| CGTCTGG | -0.101 | -0.0917 | -0.18 | 0.355 | -0.24 | 0.338 | 0.0351 | -0.156 | -0.186 | -0.161 |
| AGCGACG | 0.092 | 0.0599 | 0.149 | 0.634 | 0.126 | 1.71 | 0.327 | 0.193 | 0.0403 | 0.204 |
| CGAAGTT | 0.0136 | 0.049 | -0.171 | -1.49 | 0.0611 | -0.364 | -0.21 | -0.0607 | 0.0789 | -0.0893 |
| GGAAAGG | 0.0589 | -0.00298 | 0.489 | 1.34 | -0.0552 | 1.29 | 0.0897 | -0.0228 | -0.119 | 0.117 |
| CGTAGGT | 0.0987 | 0.0158 | 0.414 | 0.74 | 0.0246 | 0.902 | 0.0547 | 0.0124 | 0.0244 | 0.0393 |
| CTCCAGG | -0.113 | -0.16 | 0.176 | 0.843 | 0.0619 | 0.568 | -0.175 | -0.0781 | -0.0845 | -0.0455 |
| CTAGTCG | -0.0906 | -0.199 | -0.995 | -0.303 | -0.0884 | -1.22 | 0.0694 | -0.159 | -0.00274 | -0.191 |
| GATACGC | -0.043 | 0.0257 | 0.0767 | 0.263 | 0.0693 | -0.0553 | 0.107 | -0.106 | -8.01e-05 | 0.0359 |
| CGCTACG | -0.0919 | 0.156 | -0.727 | -0.543 | 0.0777 | -0.801 | 0.0411 | -0.132 | 0.0822 | 0.0206 |
| GAGCCGC | -0.136 | 0.00615 | -0.271 | -0.0913 | -0.113 | -0.511 | 0.0265 | -0.0378 | 0.016 | -0.0632 |
| TAGTGAA | -0.0383 | -0.0438 | 0.116 | -0.00826 | 0.00144 | 0.517 | -2.57 | 0.0656 | 0.0461 | -0.0456 |
| CTTATTA | -0.0823 | 0.0696 | 0.00952 | -1.1 | 0.0612 | -0.485 | -0.246 | -0.0219 | 0.119 | 0.0612 |
| TCGGGGA | 0.0619 | -0.072 | 0.625 | 0.956 | -0.0342 | 1.93 | -0.0054 | -0.135 | -0.107 | -0.00898 |
| AGTCGGG | 0.00249 | -0.157 | -0.224 | -0.137 | 0.0104 | -0.54 | 0.0331 | -0.0572 | -0.145 | -0.18 |
| AGGCGTA | 0.0589 | 0.00639 | -0.168 | -0.39 | 0.023 | -0.616 | 0.184 | 0.171 | 0.0998 | 0.00195 |
| TCTAAAT | 0.07 | 0.1 | 0.0813 | -0.507 | 0.0753 | -0.287 | -0.18 | 0.0978 | -0.0372 | -0.0568 |
| ACTCGAT | -0.00454 | -0.0825 | -0.141 | -0.13 | -0.0134 | -0.317 | -0.171 | -0.000514 | -0.134 | -0.104 |
| GGGACAC | 0.0709 | 0.0637 | 0.907 | 2.13 | 0.00711 | 2.38 | 0.224 | 0.0605 | -0.147 | 0.203 |
